# Measured values taken from paper PMC6919601, “Identification of Plasmodium dipeptidyl aminopeptidase allosteric inhibitors by high throughput screening” (PLoS ONE, 2019).
# Screen size: about 110,000 compounds; about 230 (0.21%) showed an effect of 50% or more. Some of the results follow.
# Biological target: DPAP1 (Plasmodium falciparum, UniProt Q8IIJ9)
# Experiment: primary screen, percent inhibition; read by cleavage of a fluorogenic dipeptide substrate; higher = more effect of the substance
# Design: species or system P. falciparum D10 trophozoite lysates; single well
# 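Further: 30 min substrate incubation versus DMSO and 10 µM JCP410 controls.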
# Sequence of DPAP1 (Q8IIJ9 whole entry, looked up): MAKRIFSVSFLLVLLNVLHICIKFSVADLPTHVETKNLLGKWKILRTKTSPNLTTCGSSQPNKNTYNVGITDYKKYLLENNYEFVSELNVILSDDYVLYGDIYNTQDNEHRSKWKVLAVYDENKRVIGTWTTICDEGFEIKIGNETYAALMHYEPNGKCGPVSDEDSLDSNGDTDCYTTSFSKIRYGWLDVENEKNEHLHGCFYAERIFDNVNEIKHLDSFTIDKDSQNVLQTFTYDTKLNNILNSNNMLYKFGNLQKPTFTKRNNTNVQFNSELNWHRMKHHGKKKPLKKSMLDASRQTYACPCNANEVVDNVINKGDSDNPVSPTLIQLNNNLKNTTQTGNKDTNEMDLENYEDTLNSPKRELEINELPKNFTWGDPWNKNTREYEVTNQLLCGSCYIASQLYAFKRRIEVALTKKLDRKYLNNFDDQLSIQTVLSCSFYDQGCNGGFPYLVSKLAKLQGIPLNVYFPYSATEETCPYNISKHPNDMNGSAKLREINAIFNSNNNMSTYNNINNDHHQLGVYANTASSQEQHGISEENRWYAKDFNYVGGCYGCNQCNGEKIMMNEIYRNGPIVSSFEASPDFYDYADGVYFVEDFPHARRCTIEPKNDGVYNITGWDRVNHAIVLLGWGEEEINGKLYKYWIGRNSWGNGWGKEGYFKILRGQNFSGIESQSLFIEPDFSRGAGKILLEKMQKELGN
row,SMILES,% Inhibition @ 10 uM [%]
1,COc1cccc(N(CC(=O)NC(C)(C)C)S(=O)(=O)c2ccccc2)c1,-3.25
2,CC(=O)c1cccc(NC(=O)/C(=C/c2cccs2)NC(=O)c2ccc(C)c(C)c2)c1,0.851
3,N#Cc1cc2c(nc1SCC(N)=O)CCCC2,4.47
4,COc1ccc(NC(=O)c2ccco2)c(NC(=O)CSc2ccc(Cl)cc2)c1,-7.25
5,Cc1csc2nc(CNS(=O)(=O)c3ccc4c(c3)OCCO4)cn12,2.57
6,Cc1n[nH]c(SCC(=O)Nc2ccnc3ccccc23)n1,-1.11
7,Cc1ccc(S(=O)(=O)c2cc(O)ccc2O)cc1C,-0.0369
8,COc1ccc(C(=O)Nc2ccc(S(=O)(=O)Nc3nc(C)cc(C)n3)cc2)cc1OC,3.66
9,COc1cccc(CNc2nc3ccccc3n3c(C)nnc23)c1,7.23
10,O=C(O)CCCC(=O)Nc1ccc(I)cc1,-1.86
11,COc1ccc(C(=O)ON=C2CCN(C)CC2)cc1,-1.42
12,CC(C)Cn1c2c(c(=O)[nH]c1=O)C(NC(=O)c1ccccc1)(C(F)(F)F)C(=O)N2 (stereo not shown),-1.33
13,Clc1ccc2[nH]c3c(c2c1)CCc1c[nH]nc1-3,-5.62
14,CC(C)C[C@H](NC(=O)OCc1ccccc1)C(=O)N[C@H](C#N)CCCCNC(=O)OCc1ccccc1,1.71
15,Cc1ccc(S(=O)(=O)N(CC(=O)N2CCCC2)c2cc(Cl)ccc2C)cc1,-2.75
16,CCC(C)NC(=O)c1cc2n(n1)C(C(F)(F)F)CC(c1ccc(F)cc1)N2 (stereo not shown),0.0265
17,CC1CCC2(CC1)NC(=O)c1ccccc1O2 (stereo not shown),4.78
18,OCC#CCSc1nnc(-c2ccccc2Br)o1,4.96
19,Cc1ccc(-n2ncc(C(=O)NC(C)(C)C)c2C2CCN(C(=O)OC(C)(C)C)CC2)cc1,5.57
20,Cn1c(C(=O)O)c(CNCc2ccc3c(c2)OCO3)c2ccccc21,5.09
21,CCCn1cnc2cc(NCc3ccncc3)ccc21,-2.67
22,O=C(CC(NS(=O)(=O)c1ccc(Br)cc1)c1ccco1)NC1CC1 (stereo not shown),-2.14
23,CC1CC(=O)C2=C(C1)OC(N)=C(C#N)C2c1ccccc1Cl (stereo not shown),3.1
24,COc1ccc(N(CC(=O)N2CCOCC2)S(=O)(=O)c2ccc(C)cc2)cc1Cl,-6.36
25,CC1CCCN(C(=O)c2ccc(Cl)c([N+](=O)[O-])c2)C1 (stereo not shown),5.09

row,SMILES,% Inhibition @ 10 uM [%]
1,CCCSc1ncc(Cl)c(C(=O)Nc2nnc(CCC)s2)n1,1.25
2,O=C(Cc1ccccc1)NCc1cccc(CNC(=O)Cc2ccccc2)c1,-7.78
3,CC(C)(C)c1cc(CN2CC=C(c3ccc(F)cc3)CC2)cc(C(C)(C)C)c1O,-3.15
4,CCC(=O)NC(c1ccccc1)c1ccc2cccnc2c1O (stereo not shown),7.73
5,Cc1c(C=C2C(=O)NC(=O)NC2=O)c2ccccc2n1Cc1ccc(Cl)cc1Cl,5.37
6,CC(C)(C)NC(=O)CCc1nc(-c2ccc(Cl)cc2)no1,-1.35
7,O=C(COc1ccc(Cl)cc1)NC1CN2CCC1CC2 (stereo not shown),2.14
8,CCc1ccc(NC(=O)CN(c2ccc(F)cc2)S(=O)(=O)c2ccc3c(c2)OCCO3)cc1,7.42
9,Cc1nc2sccn2c(=O)c1NC(=O)c1cccc(F)c1,13.7
10,Cc1ccc(Cn2c(Br)nc3c2c(=O)n(C)c(=O)n3C)cc1,5.51
11,CCCCCc1nn2cc(-c3ccc(C)cc3C)nc2s1,-6.43
12,Cn1c(=O)c2ncn(CC(=O)Nc3ccc(O)cc3)c2n(C)c1=O,0.755
13,CC[C@H](NC(=O)[C@H](C)NC(=O)c1cc(-c2ccccc2OC)cc(-c2ccccc2OC)c1)C(=O)c1nc2ccccc2o1,-6.56
14,COc1cc(C(=O)Nc2nnc(CC(=O)NCc3ccccc3)s2)cc(OC)c1OC,19.6
15,Cc1cc2ccccc2n1CCNC(=O)c1cccc2ccccc12,5.32
16,Cn1c(=O)c2c(nc(NCC3CCCO3)n2C)n(C)c1=O (stereo not shown),1.72
17,COCCCNC(=O)CSc1nc2nc(C)c(Cc3ccccc3C)c(C)n2n1,3.51
18,COc1ccc(/C=c2\[nH]c(=O)/c(=C\c3ccc(OC)cc3OC)[nH]c2=O)c(OC)c1,-2.87
19,CCCCC12CN3CC(C)(CN(C1)C3c1ccc(O)cc1)C2=O (stereo not shown),3.27
20,CCCCc1c(C(=O)O)cccc1C(=O)O,-0.415
21,CCOc1ccc(CCNC(=O)c2cc3c(Cl)ccc4c3n2CCO4)cc1,2.32
22,CCc1ccc(-c2cn3c(n2)sc2cc(OC)ccc23)cc1,-4.8
23,CCC(C)c1ccc(S(=O)(=O)CCc2ccc(C)nc2)cc1 (stereo not shown),3.42
24,O=C(/C=C/c1ccc(F)cc1)NC(=S)N1CCCCCC1,1.7
25,CN(c1cccc(NS(=O)(=O)c2ccc(Cl)cc2)c1)S(C)(=O)=O,-6.65

row,SMILES,% Inhibition @ 10 uM [%]
1,COc1ccccc1C(=O)Nc1ccc(N2CCOCC2)cc1,-6.36
2,CC(C)N1C(=O)S/C(=C/c2cccc(Cl)c2)C1=O,1.86
3,COc1ccc(NC(=O)c2sc3nc4c(cc3c2N)CCC4)cc1,-7.14
4,Cc1nnc(N2CCC(C(=O)N3CCC4(CC3)OCCO4)CC2)c2nn(-c3ccccc3)c(C)c12,6.47
5,COc1ccc(-c2cs/c(=N\c3ccc(Cl)cc3)n2CCCO)cc1F,-4.43
6,COc1ccccc1/C=C/c1nc(C#N)c(N2CC(C)CC(C)C2)o1 (stereo not shown),-0.808
7,COc1cccc(-c2nn(C)c3sc(C(=O)N4CCN(c5ccccn5)CC4)cc23)c1,4.51
8,Cc1c(CC(=O)O)c2c(n1-c1ccccc1)CC(C)(C)CC2=O,4.57
9,CCCOc1ccc(C2CC(=O)N3C(=C2C#N)SCC3(O)c2cccc(OC)c2)cc1OC (stereo not shown),1.64
10,N#CC1=C(N)Oc2cc(N)ccc2C1c1ccc(Cl)cc1 (stereo not shown),1.41
11,O=C(Nc1cc(Br)ccc1O)c1cccc2ccccc12,-1.07
12,CN(C)CCN(C)Cc1ccccc1Cl,3.53
13,COc1ccccc1NC(=O)c1cc2ccccc2oc1=O,-0.268
14,CCN(CC)C(=O)Cn1c(S(=O)(=O)Cc2ccccc2)nc2ccccc21,-3.53
15,CC1=CC2=NC(=O)/C(=C\c3cccn3CCOc3ccc(C(C)C)cc3)C(=N)N2O1,2
16,CCOC(=O)c1c(C)c(-c2ccccc2)n(CC(=O)N2CCOCC2)c1C,0.0579
17,COc1cccc(Cn2c(=O)n(Cc3ccco3)c(=O)c3sc4ccccc4c32)c1,2.97
18,O=C1N=C(N2CCOCC2)S/C1=C\c1ccc(C(=O)O)cc1,-7.59
19,O=C(O)c1ccccc1NC1=NS(=O)(=O)c2ccccc21,-8.37
20,Fc1cccc(Cl)c1CNCc1cccnc1,-0.968
21,Cc1ccc(-c2nnc(SCC(=O)NC3CCCCC3)o2)cc1,-1.84
22,O=C(COc1ccc(S(=O)(=O)NCc2ccccc2)cc1)N1CCc2ccccc2C1,-2.09
23,COc1cc(C(=O)Nc2ccc(S(N)(=O)=O)cc2)cc(OC)c1OC,5.42
24,CN(CC(O)c1ccccc1)C1CC2CCC1C2 (stereo not shown),-7.17
25,CCOC(=O)c1[nH]c(C)c(CC)c1C,-0.591

row,SMILES,% Inhibition @ 10 uM [%]
1,CCOc1ccc(C2c3c(oc4ccccc4c3=O)C(=O)N2Cc2ccc3c(c2)OCO3)cc1OC (stereo not shown),-1.33
2,CC(C)c1ccc(C2C(C#N)=C(N)Oc3cc(N(C)C)ccc32)cc1 (stereo not shown),3.99
3,CCC(=O)Nc1ccc(Oc2ccc(NC(=O)CC)c(NC(=O)CC)c2)cc1,8.21
4,CC(=O)c1cccc(NC(=O)c2ccc(C(C)(C)C)cc2)c1,4.12
5,O=S(=O)(c1ccccc1)c1nc(Cc2ccccc2)oc1N1CCOCC1,-7.75
6,O=C(NCc1nc2ccccc2[nH]1)c1nc(-c2cccs2)no1,2.79
7,CCCNC(=O)c1ccc(CSc2nc3ccncc3n2Cc2ccccc2)cc1,-0.23
8,CCN(CC)c1ccc(/C=C2\SC(=O)N(CC(=O)N3CCOCC3)C2=O)cc1,-7.96
9,Cc1ccc(OCC(=O)N(Cc2ccc(C)o2)C2CCS(=O)(=O)C2)cc1 (stereo not shown),-2.85
10,CC1(C)CC(=O)C2=C(C1)OC1=C(C(=O)CC(C)(C)C1)C2c1ccc(O)cc1,-0.127
11,CCOc1ccccc1C(=O)Nc1cnn(Cc2ccc(F)cc2)c1,11.6
12,O=C(NC1CCCc2ccccc21)C1(S(=O)(=O)c2ccc(Cl)cc2)CC1 (stereo not shown),4.63
13,COc1ccc(C2OCC(CN3CCCCC3)O2)cc1 (stereo not shown),-2.18
14,Cc1ccc(C)c(OCC(=O)N2CCN(C(=O)c3ccco3)CC2)c1,-1.57
15,O=C1c2ccccc2C(=O)N1Cc1nc2ccccc2c(=O)n1-c1nccs1,0.0504
16,CCCc1cc(C(=O)OC)c(NC(=O)CCC(=O)O)s1,0.64
17,Nc1ccccc1-c1nc2ccccc2nc1O,-5.96
18,CCOC(=O)c1c(NC(=O)c2ccccc2C(=O)O)sc2c1CCCC2,-1.29
19,CCCc1[nH]nc2c1C(c1ccc(F)cc1)C(C#N)=C(N)O2 (stereo not shown),0.658
20,CCCOc1ccc(CC(=O)Nc2ccc(F)cc2)cc1OC,11.8
21,Cc1c(C(=O)N2CCOCC2)oc2c1-c1nn(CC(=O)NCCc3ccc(Cl)cc3)cc1CC2,4.4
22,CCCCCc1cc(O)c2c(C)cc(=O)oc2c1,4.82
23,COc1ccc(NC(=O)CC2S/C(=N\c3cccc(Cl)c3C)N(C)C2=O)cc1 (stereo not shown),1.17
24,COCCNC(=O)c1cc2nc(-c3ccc(C)cc3)cc(C(F)(F)F)n2n1,0.161
25,N#Cc1nc(/C=C/c2cccs2)oc1NC1CC1,-1.71
